# Values joined by “and” are separate entries in the source; they are usually repeats but may differ in a detail not shown here. Equal values may be shown once. The shares of active, inactive and inconclusive entries below differ from those in the screen. Potencies beside an inconclusive call are fits to weak or partial responses and may not hold up. Active and inactive are the calls of the source. Calls come from the whole dose curve; as a rule, active = well fitted cell-killing curve with a large enough effect; inconclusive = small, poorly fitted or top-dose-only effect, or effect the other way; inactive = no such curve, though single readings can be large or run the other way.
# Columns and labels:
# [1] = Viability qHTS for spleen associated tyrosine kinase inhibitor (SYKi) naive MV4-11 cells (AID 1963823); conditions: MV4-11 AML viability, CellTiter-Glo luminescence, 72 h; series mostly up to 45 µM; note: nearly all actives have a fitted effect of over 40% in size
# Summary of the method: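 Cells: MV4-11, SYK inhibitor naive, 500 per well. Treatment: library compounds, 72 hr, 37 C, 5% CO2. Read-out: CellTiter-Glo luminescence after 10 min RT.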
# [2] = Viability qHTS for spleen associated tyrosine kinase inhibitor (SYKi) drug resistant MV4-11 cells (AID 1963824); conditions: SYKi-resistant MV4-11 viability, CellTiter-Glo, 72 h; series mostly up to 45 µM; note: nearly all actives have a fitted effect of over 35% in size
# Summary of the method: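 SYK inhibitor-resistant MV4-11 AML cells, 500 per well, added to predispensed compounds and incubated 72 hr at 37 C, 5% CO2. Viability measured by CellTiter-Glo luminescence after 10 min at room temperature.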
# Potency is the fitted concentration of half-maximal effect; tags give direction and shape of the fitted curve.
SMILES,Potency [1],Potency [2]
C[C@@H]1CCC/C=C/[C@H]2CC(=O)C[C@@H]2[C@@H](O)/C=C/C(=O)O1,"inconclusive: 16.4 µM [cytotoxic, single point]","inconclusive: 20.6 µM [cytotoxic, partial curve]"
CC1(C)CCC2(C(=O)O)CCC3(C)C(=CCC4C5(C)CCC(O)C(C)(CO)C5C(O)CC43C)C2C1 (stereo unspecified),"inconclusive: 8.93 µM [cytotoxic, partial curve, poor fit]","inconclusive: 6.32 µM [cytotoxic, partial curve, poor fit]"
O[C@@](Cc1ncc(CC2(C(F)(F)F)CC2)[nH]1)(c1ccc(-n2cccn2)cc1)C(F)(F)F,"inconclusive: 18.4 µM [cytotoxic, partial curve]",active: 14.6 µM
C[C@H]1CC[C@@]2(OC1)O[C@H]1CC3C4CC[C@H]5C[C@@H](O)CC[C@]5(C)C4=CC(=O)[C@]3(C)[C@H]1[C@@H]2C (stereo partly specified),"inconclusive: 5.63 µM [cytotoxic, partial curve]","inconclusive: 3.99 µM [cytotoxic, partial curve, poor fit]"
O=C(NC1(c2ccccc2)CC1)c1c(CN2CCC(N3CCCCC3)CC2)c(-c2cccc(C(F)(F)F)c2)nc2cc(Br)ccc12,"inconclusive: 3.26 µM [cytotoxic, full curve]","inconclusive: 4.11 µM [cytotoxic, full curve, poor fit]"
CC(C)CC(=O)NCCn1cc(C(=O)O)c(=O)cc1C(O)c1ccccc1 (stereo unspecified),inactive,inactive
Cc1ccc(/C(=C\CN2CCCC2)c2ccccn2)cc1,"inconclusive: 33.5 µM [cytotoxic, single point]","inconclusive: 23.7 µM [cytotoxic, partial curve, poor fit]"
CCC[C@H](N[C@H]1CCc2cc(F)cc(F)c2C1)C(=O)Nc1cn(C(C)(C)CNCC(C)(C)C)cn1,"inconclusive: 16.4 µM [cytotoxic, partial curve, poor fit]",active: 9.2 µM and active: 6.61 µM
Nc1ncnc2c1ncn2[C@H]1O[C@@H](C(=O)N2CCN(CC(=O)Nc3cccc4c3CNC4=O)CC2)[C@H](O)[C@@H]1O,"inconclusive: 5.8 µM [cytotoxic, full curve, poor fit]","inconclusive: 10.3 µM [cytotoxic, partial curve]"
O=C1CCC(c2ccccc2)(C2CCN(Cc3ccc(I)cc3)CC2)C(=O)N1 (stereo unspecified),"inconclusive: 20.6 µM [cytotoxic, single point]","inconclusive: 14.6 µM [cytotoxic, partial curve]"
COc1c2cc(c(O)c1OC)-c1cc(ccc1O)CCC(O)CCCC2 (stereo unspecified),active: 12.8 µM,"inconclusive: 14.3 µM [cytotoxic, partial curve]"
O=C(O)CCc1nccc2c1[nH]c1ccccc12,"inconclusive: 16.4 µM [cytotoxic, partial curve]",active: 23.1 µM
CC12CCC3C(C)(C)C(O)CCC3(C)C1Cc1c(oc(C(=O)O)cc1=O)O2 (stereo unspecified),"inconclusive: 20.2 µM [cytotoxic, single point]","inconclusive: 16.1 µM [cytotoxic, single point]"
O=C(O)C1(c2ccc(-c3ccc(Cl)c(Cl)c3)c(F)c2)CC1,"inconclusive: 16.4 µM [cytotoxic, partial curve, poor fit]","inconclusive: 25.9 µM [cytotoxic, single point]"
CC(C)(O)c1ccc2c(c1)ncn2-c1cccc(-c2ccccc2C#N)c1,"inconclusive: 14.6 µM [cytotoxic, partial curve]",active: 18.4 µM
C=C1CC/C=C(/C(=O)O)CCC2C1CC2(C)C (stereo unspecified),"inconclusive: 29.1 µM [cytotoxic, partial curve, poor fit]","inconclusive: 2.31 µM [cytotoxic, partial curve, poor fit]"
O=C(/C=C/c1cccc(S(=O)(=O)Nc2ccccc2)c1)NO,active: 563 nM and active: 417 nM,active: 282 nM and active: 332 nM
C=CC(C)(O)CC/C=C(\C)C1CC=C(C)C(=O)O1 (stereo unspecified),"inconclusive: 20.6 µM [cytotoxic, partial curve]","inconclusive: 23.1 µM [cytotoxic, partial curve]"
C[C@@H]1CC[C@]2(C)C3(C)CC[C@@]2(OC3=O)[C@@]12C[C@H](c1ccoc1)OC2=O,"inconclusive: 16.1 µM [cytotoxic, partial curve, poor fit]","inconclusive: 10.1 µM [cytotoxic, partial curve, poor fit]"

SMILES,Potency [1],Potency [2]
C=C1CCC2C(C)(C)CC(O)CC2(C)C1CCC(C)CC(=O)O (stereo unspecified),inactive,"inconclusive: 1.14 µM [cytotoxic, partial curve, poor fit]"
Cc1oc2ccccc2c1CNC(=O)NCc1cccs1,"inconclusive: 16.4 µM [cytotoxic, partial curve, poor fit]","inconclusive: 23.1 µM [cytotoxic, single point]"
CC(=O)Oc1ccc(C(c2ccc(OC(C)=O)cc2)c2ccccn2)cc1,"inconclusive: 18.8 µM [cytotoxic, partial curve]","inconclusive: 11.9 µM [cytotoxic, partial curve]"
O=C(Oc1ccccc1C(=O)O)c1ccccc1O,inactive,inactive
CC1(C)CC=C(c2cnc3ccccc3c2)c2cc(C(=O)Nc3ccc(C(=O)O)cc3)ccc21,"inconclusive: 29.1 µM [cytotoxic, single point]","inconclusive: 16.4 µM [cytotoxic, single point]"
CC/C=C\[C@H](O)[C@H](O)C1=C(C)C(=O)[C@]2(O1)C(=O)N[C@@](O)(C(=O)c1ccccc1)[C@@H]2O,inactive,inactive
CC(CCC1C(C(=O)O)=CC(=O)CC1(C)C)O[C@@H]1O[C@H](CO)[C@@H](O)[C@H](O)[C@H]1O (stereo partly specified),inactive,inactive
CN(C)N(C)C(=O)[C@@]1(Cc2ccccc2)CCCN(C(=O)[C@@H](Cc2c[nH]c3ccccc23)NC(=O)C(C)(C)N)C1,"inconclusive: 14.6 µM [cytotoxic, partial curve] and inconclusive: 20.9 µM [cytotoxic, single point]","inconclusive: 23.1 µM [cytotoxic, single point] and inconclusive: 20.9 µM [cytotoxic, partial curve, poor fit]"
Nc1ncnc(Nc2ccccc2)n1,"inconclusive: 0.188 µM [rising, full curve, poor fit]","inconclusive: 0.266 µM [rising, full curve, poor fit]"
Oc1cccc(-c2nc(N3CCOCC3)c3sccc3n2)c1,active: 0.82 µM,active: 2.06 µM
CC(C)c1cc2c(c(O)c1O)[C@@]13CCCC(C)(C)[C@@H]1[C@H](OC3=O)C2=O,"inconclusive: 0.64 µM [cytotoxic, full curve, poor fit]","inconclusive: 11.4 µM [cytotoxic, partial curve]"
CC(=O)OC1C(c2ccccc2)CCC(c2ccccc2)C1OC(C)=O (stereo unspecified),"inconclusive: 12.8 µM [cytotoxic, single point]","inconclusive: 12.8 µM [cytotoxic, single point]"
C/C=C/C=C/C=C/C(=O)OC1C=C(C=O)C(O)(C(=O)O)C2(C)CCCC(C)(C)C12 (stereo unspecified),"inconclusive: 8.93 µM [cytotoxic, single point]","inconclusive: 8.93 µM [cytotoxic, partial curve]"
CC(=O)O[C@@H]1CC2C(/C=C(\C)C(=O)[C@@]3(O)C[C@@H](C)[C@H](OC(=O)c4ccccc4)C3/C=C/1C)C2(C)C (stereo partly specified),"inconclusive: 12.6 µM [cytotoxic, single point]",active: 10 µM
CCCCCCCCCCC(CO)CCCCCCCC (stereo unspecified),inactive,inactive
CC[N+](C)(CC)CCOC(=O)C(O)(c1ccccc1)C1CCCCC1 (stereo unspecified),"inconclusive: 33.5 µM [cytotoxic, single point]","inconclusive: 15 µM [cytotoxic, partial curve]"
CNC(=O)COC(=O)N1CCC(CCc2ccc(Cl)cc2)CC1,"inconclusive: 4.61 µM [cytotoxic, full curve]","inconclusive: 6.51 µM [cytotoxic, partial curve]"
CC(=O)O[C@@H]1[C@H](O[C@@H]2O[C@@H](CO)[C@H](O)[C@H]2O)[C@@H](O[C@@H]2O[C@@H](C)[C@H](O[C@@H]3OC[C@@H](O)[C@H](O)[C@H]3O)[C@@H](O)[C@H]2O)[C@H](OC(=O)[C@]23CCC(C)(C)C[C@H]2C2=CCC4[C@@]5(C)CC[C@H](O[C@@H]6O[C@H](C(=O)O)[C@@H](O)[C@H](O)[C@H]6O[C@@H]6O[C@H](CO)[C@H](O)[C@H](O)[C@H]6O)[C@@](C)(C=O)C5CC[C@@]4(C)[C@]2(C)C[C@H]3O)O[C@@H]1C (stereo partly specified),"inconclusive: 2.19 µM [cytotoxic, single point]","inconclusive: 2.75 µM [cytotoxic, single point]"
CC(=O)OCC(=O)[C@@]1(OC(C)=O)[C@@H](C)C[C@H]2[C@@H]3C[C@H](F)C4=CC(=O)C=C[C@]4(C)[C@@]3(F)[C@@H](O)C[C@@]21C,"inconclusive: 7.5 µM [cytotoxic, partial curve, poor fit]","inconclusive: 13.3 µM [cytotoxic, partial curve]"

# — PubChem BioAssay (NCATS)
